# Experimental data reported in the supplement of paper PMC4166925.
# ± gives the standard deviation of the averaged measurements. The full ranking holds about 33,000 sequences; the median of “E-score (dimensionless, -0.5 to 0.5)” is about -0.049, and the highest 2% start at about 0.37. The list shows a part of the results.
# System: T1, PmTbr T-box DNA-binding domain (GST fusion)
# T1 sequence: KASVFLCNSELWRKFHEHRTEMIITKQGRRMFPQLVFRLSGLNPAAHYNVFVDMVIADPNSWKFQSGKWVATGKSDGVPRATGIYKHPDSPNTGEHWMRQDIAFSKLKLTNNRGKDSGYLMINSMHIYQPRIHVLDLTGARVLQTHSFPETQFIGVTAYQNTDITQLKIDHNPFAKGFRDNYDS
# Assay: PBM E-score of 8-mer (E-score (dimensionless, -0.5 to 0.5)); Tbr is Tbrain of the sea star Patiria miniata (Pm) or the sea urchin Strongylocentrotus purpuratus (Sp); higher = stronger binding preference; most listed sequences are background and not binding sites
# Conditions: the construct has about 5 more residues each side
# Summary of the method: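 Using the Universal PBM Analysis Suite, every ungapped 8-mer received an enrichment E-score averaged over duplicate arrays. Probe intensities came from double-stranded Universal Agilent oligonucleotide arrays incubated with 200 nM GST-fused Tbr T-box DNA-binding domain in PBS (pH 7.5). That protein was expressed in BL21 E. coli at 20 °C and purified by glutathione affinity chromatography.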
row,Sequence,PBM E-score of 8-mer
1,ACATAGCA,0.254 ± 0.043
2,TAGGAATA,-0.362 ± 0.056
3,ACTGCTCG,0.0881 ± 0.035
4,CTATTTAA,0.0722 ± 0.056
5,AGTCTGAG,0.0166 ± 0.0037
6,ATCGCGGG,0.0753 ± 0.022
7,AGTTAAGG,-0.0465 ± 0.0096
8,CTACGTGC,0.0483 ± 0.049
9,ATTTTATG,-0.0546 ± 0.13
10,CCAGTACG,-0.32 ± 0.032
11,GCAGAAGA,-0.194 ± 0.038
12,AGACATAA,-0.112 ± 0.02
13,GTCTTTAA,-0.233 ± 0.028
14,CCGTATAG,-0.11 ± 0.014
15,ACACTCCC,0.265 ± 0.042
16,CATTTTCA,0.0383 ± 0.027
17,CAGGAATA,-0.0771 ± 0.004
18,GGTCCGTA,-0.31 ± 0.0095
19,CCAAGTTA,-0.166 ± 0.023
20,TTCCGAAA,-0.148 ± 0.0043
21,ATTTAATC,-0.234 ± 0.12
22,TAAGTACA,-0.106 ± 0.042
23,GGAATAAA,-0.152 ± 0.0091
24,CGGACCTA,-0.113 ± 0.055
25,GGGTCCAA,-0.173 ± 0.039

row,Sequence,PBM E-score of 8-mer
1,ATCATAAA,-0.0659 ± 0.032
2,GGATGGAA,-0.237 ± 0.027
3,AATGGCCT,-0.0758 ± 0.017
4,ATCAGCAG,0.0234 ± 0.014
5,ACAGCGTC,0.0172 ± 0.035
6,CACTGGAG,-0.133 ± 0.0021
7,AGGAGCCT,-0.292 ± 0.047
8,ACATCCGG,-0.0734 ± 0.061
9,GCTTGGGA,-0.208 ± 0.064
10,CGGACGCC,0.06 ± 0.061
11,GGTTCGCA,0.334 ± 0.02
12,CTGGCTTA,-0.275 ± 0.025
13,AATTTTAA,-0.0211 ± 0.19
14,AATGAGTA,-0.115 ± 0.038
15,GCGGTGCA,0.0732 ± 0.012
16,ATAGCCAA,-0.2 ± 0.05
17,ATTAAATG,-0.0498 ± 0.087
18,CTGTACCC,-0.141 ± 0.005
19,GGTAAAGA,-0.155 ± 0.043
20,CGTCTGAA,-0.182 ± 0.073
21,AAATGCCC,-0.194 ± 0.043
22,ACCTTCCG,0.244 ± 0.024
23,ACGATTTG,0.146 ± 0.052
24,CTATTAGC,0.0714 ± 0.036
25,AACTGGGT,0.0102 ± 0.014

row,Sequence,PBM E-score of 8-mer
1,ATCATTTC,-0.124 ± 0.049
2,ATACAACG,-0.0324 ± 0.0032
3,AGTACAAG,-0.179 ± 0.081
4,AACACCAA,0.393 ± 0.011
5,ACAGCACG,0.0921 ± 0.053
6,CGCGTCGA,0.225 ± 0.0088
7,AAAGGCAC,-0.0325 ± 0.013
8,ACTACTCA,0.0417 ± 0.047
9,ACGTACGT,0.296 ± 0.016
10,CTAAAACC,-0.186 ± 0.088
11,CGGCCTAG,-0.0171 ± 0.036
12,ACCGAGCG,-0.171 ± 0.018
13,ACATACGA,-0.0429 ± 0.024
14,AGTACTGG,-0.272 ± 0.0055
15,ACATCGTA,-0.0767 ± 0.038
16,ATTAAAGA,-0.221 ± 0.057
17,ATGTTTGC,-0.0719 ± 0.089
18,TCGTTCCA,-0.0874 ± 0.035
19,GTGATGGA,0.219 ± 0.031
20,TCCGTGCA,-0.0476 ± 0.039
21,AGGCCTGG,-0.293 ± 0.041
22,ACACAGCG,0.157 ± 0.028
23,TAGTCCAA,-0.327 ± 0.018
24,CGTTCCAC,0.036 ± 0.032
25,CAACCTTA,-0.245 ± 0.026

row,Sequence,PBM E-score of 8-mer
1,ATAGACTC,-0.273 ± 0.051
2,CTTAATTA,-0.165 ± 0.0089
3,CAGACTAC,-0.244 ± 0.019
4,CAAGCCAA,-0.169 ± 0.02
5,GAGTAGCA,0.135 ± 0.0046
6,AATGATCA,-0.177 ± 0.009
7,GCATTCGC,0.204 ± 0.055
8,TGAGTCAA,-0.155 ± 0.011
9,AGCCAGCA,-0.114 ± 0.0039
10,CTACTTTA,0.0726 ± 0.045
11,CTCGTGTC,0.125 ± 0.043
12,AACGGTAC,-0.0723 ± 0.022
13,GCCTCAGC,0.0495 ± 0.022
14,AATTATGC,-0.126 ± 0.071
15,CCGCCCGG,-0.266 ± 0.02
16,GAGCAGTA,-0.00165 ± 0.021
17,CATCTATA,-0.189 ± 0.009
18,CTCTGAAA,-0.198 ± 0.063
19,ATTAAGCC,-0.166 ± 0.011
20,AGCGACCA,-0.0413 ± 0.019
21,ACTAGGAA,-0.1977 ± 0.001
22,CGTTAGTC,-0.04 ± 0.0098
23,ATCTCCCG,-0.0701 ± 0.054
24,AATTAGGT,0.152 ± 0.083
25,CGGACGTA,-0.224 ± 0.018

row,Sequence,PBM E-score of 8-mer
1,CCGCCGAC,0.09 ± 0.0017
2,ATCGAATC,-0.209 ± 0.051
3,GCAAATGC,-0.0465 ± 0.014
4,ATGGCTAA,-0.0831 ± 0.062
5,ATAGCTAA,-0.273 ± 0.053
6,AAACGCGG,-0.222 ± 0.044
7,GTTCACGA,0.224 ± 0.037
8,AAGATTCT,-0.252 ± 0.084
9,GGATGTAC,-0.201 ± 0.079
10,CAGTTCTA,-0.0552 ± 0.026
11,CTCTACAG,-0.113 ± 0.0066
12,CATCCTCA,-0.0261 ± 0.11
13,AATTTAAG,-0.158 ± 0.055
14,AATTCCAG,-0.107 ± 0.0077
15,CAGTGATA,0.0686 ± 0.025
16,ACATGTCC,-0.137 ± 0.069
17,AAAAGCTT,-0.0359 ± 0.065
18,CAGTACAA,-0.0958 ± 0.11
19,GTACGGGA,-0.122 ± 0.14
20,AATCTCAC,0.382 ± 0.0088
21,ATTTCAAG,-0.237 ± 0.005
22,CCATTGGG,-0.0455 ± 0.018
23,GGCAGTAC,-0.0369 ± 0.011
24,GTATACAA,-0.188 ± 0.028
25,GCGCATCC,-0.146 ± 0.024

row,Sequence,PBM E-score of 8-mer
1,AAGAGAGA,-0.148 ± 0.021
2,GCCGGTAC,-0.0742 ± 0.039
3,AATGGGTG,0.152 ± 0.01
4,ATCTATGG,-0.0973 ± 0.0057
5,ATACTTGG,-0.174 ± 0.046
6,GGGGAGTA,-0.302 ± 0.006
7,GTGTCAAA,0.448 ± 0.0094
8,AAAGGCCG,-0.109 ± 0.03
9,ACGAGACA,-0.0382 ± 0.093
10,AAAACCAA,-0.179 ± 0.096
11,ATTCACTC,0.0712 ± 0.054
12,ACTGTTCT,-0.0189 ± 0.038
13,CATTAACC,-0.234 ± 0.022
14,ATCAGTCG,-0.135 ± 0.035
15,ATGAATTA,0.0608 ± 0.11
16,CCTACGTC,-0.0133 ± 0.061
17,CATTCCCG,-0.0279 ± 0.086
18,GAATACAA,-0.083 ± 0.062
19,AGCGAAAT,0.134 ± 0.06
20,GCGAAAGA,0.248 ± 0.0091
21,CGTTGCGC,0.102 ± 0.037
22,GACAAAAA,0.158 ± 0.09
23,CGAAGGTC,0.08 ± 0.055
24,ATCGGGGG,-0.128 ± 0.09
25,ATTGGCTC,-0.136 ± 0.053

row,Sequence,PBM E-score of 8-mer
1,ACGCCCTC,0.2012 ± 0.00017
2,GACGACCA,-0.135 ± 0.022
3,AATCAGCA,0.0635 ± 0.0042
4,ACAACATA,-0.0529 ± 0.047
5,AGGAAACA,-0.161 ± 0.027
6,AATTCGCG,0.303 ± 0.035
7,AGGATAAA,-0.154 ± 0.082
8,ACCAACGC,0.175 ± 0.013
9,CTGATGGC,-0.205 ± 0.011
10,ATTGTTAG,0.0514 ± 0.074
11,GTATTCTA,-0.236 ± 0.044
12,TAGCTCGA,0.0596 ± 0.047
13,AATTTGTA,-0.0152 ± 0.047
14,CCTTCTGC,0.187 ± 0.032
15,ACCTGCGA,0.344 ± 0.035
16,ATAGTTCC,-0.201 ± 0.075
17,AACTAACT,0.0164 ± 0.028
18,GCCGGTAA,-0.0951 ± 0.077
19,CCGGCCTC,-0.272 ± 0.022
20,CATCTCGA,-0.12 ± 0.017
21,TCAAAAGA,-0.163 ± 0.04
22,GCAGAACC,-0.0717 ± 0.0065
